The campaign covered roughly 410,000 compounds. About 6,400 (1.6%) were called active. The inconclusive results got no clear call from the source; some entries with a clear call stand among them for comparison. Calls come from the whole dose curve; as a rule, active = well fitted inhibition curve with a large enough effect; inconclusive = small, poorly fitted or top-dose-only effect; inactive = no such curve, though single readings can be large or run the other way. Potencies of inconclusive entries are left out as doubtful fits.
The molecules below were run against Glucagon-like peptide 1 receptor (Homo sapiens) (UniProt P43220) (assay: qHTS of GLP-1 Receptor Inverse Agonists (Inhibition Mode)). Settings: HEK293 GLP-1R CRE-luciferase, luminescence, 24 h, GLP-1R form is constitutively active; activity change, negative = inhibition: at 38.3 µM (top of the series) unless noted.
UniProt P43220, sequence (P43220 whole entry, looked up): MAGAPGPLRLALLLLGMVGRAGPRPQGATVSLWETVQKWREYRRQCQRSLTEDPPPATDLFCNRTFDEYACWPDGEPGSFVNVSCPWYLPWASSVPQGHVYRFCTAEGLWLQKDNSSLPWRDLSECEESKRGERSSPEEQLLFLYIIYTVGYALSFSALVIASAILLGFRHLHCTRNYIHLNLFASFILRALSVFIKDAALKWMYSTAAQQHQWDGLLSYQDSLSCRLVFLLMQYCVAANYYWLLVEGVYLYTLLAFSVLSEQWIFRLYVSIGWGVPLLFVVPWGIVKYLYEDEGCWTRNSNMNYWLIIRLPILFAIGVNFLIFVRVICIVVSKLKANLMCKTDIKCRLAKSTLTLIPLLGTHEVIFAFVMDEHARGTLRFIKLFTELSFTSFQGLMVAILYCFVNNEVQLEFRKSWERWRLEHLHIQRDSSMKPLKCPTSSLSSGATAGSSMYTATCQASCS
Summary of the method: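 Assay principle: reduced luminescence from a cAMP-responsive reporter in HEK293 cells co-expressing a constitutively active GLP-1R. Conditions: 24 hr compound incubation, 37 deg C, 5% CO2.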
% is set by controls: 0 for no effect and ±100 for the full control effect; potency is the fitted concentration of half-maximal effect; tags give direction and shape of the fitted curve.
Note: nearly all actives have a fitted effect of over 55% in size.

Q: For `O=c1cc2c(nn1Cc1ccccc1Cl)-c1ccccc1CC2`, which Potency is on record?
A: The Potency was active: 10 µM.

Q: With `COc1ccccc1CCC(=O)Nc1ccc2c(c1)c(=O)n(C)n2Cc1cccc(C(F)(F)F)c1` as the molecule, how does the Potency read?
A: Its Potency is inconclusive [inhibitor, single point].

Q: Which Potency does the source give for `CCOc1ccc(-c2cn3ccccc3n2)cc1` here?
A: The Potency was inconclusive [inhibitor, partial curve, poor fit].

Q: Which Potency does the source give for `COc1ccccc1C(=O)Nc1ccnn1C1CCN(Cc2cnn(C)c2C)CC1` here?
A: Its Potency is inconclusive [inhibitor, partial curve, poor fit].

Q: With `CCCN(CC(=O)Nc1ccccc1C)C(=O)c1ccc(N2CCCCCC2)c([N+](=O)[O-])c1` as the molecule, how does the Potency read?
A: Its Potency is inconclusive [inhibitor, partial curve, poor fit].

Q: Which Potency does the source give for `O=C(CNC1CCCCC1)Nc1ccc(Cl)cc1` here?
A: The Potency was inconclusive [inhibitor, single point].

Q: For `COc1cc(OC)cc(C(=O)OC/C(O)=C(\C#N)c2nc3ccccc3[nH]2)c1`, which Potency is on record?
A: The Potency was inconclusive [inhibitor, single point].

Q: With `CCC(=O)NC(=S)Nc1ccc(NC(=O)COc2ccc(Cl)cc2Cl)cc1` as the molecule, how does the Potency read?
A: Its Potency is inconclusive [inhibitor, partial curve, poor fit].

Q: How did the Potency turn out when `O=C(c1cc(F)c(F)c(F)c1F)N1CCN(Cc2ccc3c(c2)OCO3)CC1` was run?
A: The Potency was inconclusive [inhibitor, single point].

Q: How did the Potency turn out when `NCCCCC(C(=O)O)N(C(=O)OCc1ccccc1)C(=O)OCc1ccccc1` (stereo not drawn) was run?
A: Its Potency is “inactive”.

Q: With `CC12COC3(C(=O)Nc4ccc([N+](=O)[O-])cc4)CC1CCC32C` (stereo not drawn) as the molecule, how does the Potency read?
A: The Potency was inconclusive [inhibitor, partial curve, poor fit].

Q: Which Potency does the source give for `COc1ccc(CNC(=O)/C=C/c2ccc(S(=O)(=O)N3CCOCC3)cc2)cc1` here?
A: The Potency was “inactive”.

Q: How did the Potency turn out when `Cc1ccccc1NC(=O)Nc1nc(C(N)c2ccccc2)cs1` (stereo not drawn) was run?
A: Its Potency is inconclusive [inhibitor, single point].

Q: Which Potency does the source give for `Cn1cccc1/C=C1\SC(=S)N(NC(=O)c2ccccc2O)C1=O` here?
A: Its Potency is “inactive”.

Q: Which Potency does the source give for `CCCc1sc(N)nc1-c1ccc(C)cc1` here?
A: Its Potency is inconclusive [inhibitor, partial curve, poor fit].

Q: For `COCCCC1CCN(C(=O)c2cc(COc3ccc(C)nc3)on2)CC1`, which Potency is on record?
A: Its Potency is “inactive”.

Q: For `COc1ccc(-c2[nH]c3ccccc3c2SCCNC(=O)c2cc(OC)c(OC)c(OC)c2)cc1`, which Potency is on record?
A: Its Potency is inconclusive [inhibitor, partial curve, poor fit].

Q: `COC(=O)C1=CN(Cc2ccc(OC)cc2)C=C(C(=O)OC)C1c1ccsc1` was tested. Which Potency did it give?
A: Its Potency is inconclusive [inhibitor, single point].

Q: With `NC(=O)c1nsc(C(=O)N(c2cccc(F)c2)C(C(=O)NCc2ccccc2)c2ccc(O)cc2)c1N` (stereo not drawn) as the molecule, how does the Potency read?
A: Its Potency is inconclusive [inhibitor, partial curve, poor fit].

Q: Which Potency does the source give for `Cc1cc(C)cc(OCCNC(=O)c2ccc(Br)cc2)c1` here?
A: Its Potency is inconclusive [inhibitor, full curve].

Q: For `NC(CCc1ccccc1)c1csc(NC(=O)Nc2cccc(Cl)c2)n1` (stereo not drawn), which Potency is on record?
A: Its Potency is inconclusive [inhibitor, single point].

Q: `Cc1nc(-c2ccc(F)cc2)c(CC(=O)N(C)CC(=O)Nc2ccc(Br)cc2C)s1` was tested. Which Potency did it give?
A: Its Potency is inconclusive [inhibitor, single point].

Q: `C=CCn1c(C)cc(C(=O)Cn2c(C(C)O)nc3ccccc32)c1C` (stereo not drawn) was tested. Which Potency did it give?
A: Its Potency is inconclusive [inhibitor, partial curve, poor fit].

Q: Which Potency does the source give for `COc1ccccc1N(C)S(=O)(=O)c1ccc(C(=O)OCC(=O)c2c[nH]c3ccccc23)cc1` here?
A: The Potency was inconclusive [inhibitor, partial curve, poor fit].

Q: With `CCCn1c2ccccc2c2cnn(CC(=O)N(C)c3ccc(F)cc3)c(=O)c21` as the molecule, how does the Potency read?
A: Its Potency is “inactive”.

Q: How did the Potency turn out when `COc1cc(CNn2c(C)n[nH]c2=S)cc(Br)c1OCc1ccc(F)cc1` was run?
A: Its Potency is inconclusive [inhibitor, single point].

Q: `Cc1ccc(C(=O)/C=C/C(=O)c2ccc(C)cc2)cc1` was tested. Which Potency did it give?
A: The Potency was “inactive”.

Q: How did the Potency turn out when `COc1ccc(S(=O)(=O)N2CCOCC2)cc1NC(=O)Cc1ccsc1` was run?
A: The Potency was “inactive”.

Q: How did the Potency turn out when `COc1cc(OC)c(C(=O)NC2CCCc3ccccc32)cc1OC` (stereo not drawn) was run?
A: The Potency was inconclusive [inhibitor, partial curve].

Q: How did the Potency turn out when `COc1ccc(Cl)cc1NC(=O)c1c(NCc2ccc(C)o2)sc2c1CCCCC2` was run?
A: The Potency was inconclusive [inhibitor, single point].

Q: `CC(C)[C@H](NC(=O)N1CCn2c1nc1ccccc12)C(=O)NC1CCCCC1` was tested. Which Potency did it give?
A: Its Potency is inconclusive [inhibitor, partial curve, poor fit].

Q: `O=C(Nc1ccc(F)cc1)Nc1ccc(N2CCCC2)c(S(=O)(=O)Nc2ccccc2Cl)c1` was tested. Which Potency did it give?
A: Its Potency is inconclusive [inhibitor, full curve, poor fit].

Q: How did the Potency turn out when `Cc1ccc(S(=O)(=O)c2cnc(-c3ccccc3)nc2N2CCCCC2)cc1` was run?
A: The Potency was inconclusive [inhibitor, partial curve, poor fit].

Q: `CCn1c(C(=O)NCCc2ccc(OC)c(OC)c2)cc2sc(Cl)cc21` was tested. Which Potency did it give?
A: The Potency was inconclusive [inhibitor, partial curve].

Q: For `O=C(/C=C/c1ccc(F)cc1)N1CCCc2ccccc21`, which Potency is on record?
A: The Potency was inconclusive [inhibitor, partial curve, poor fit].

Q: Which Potency does the source give for `Cc1cccc(NC(=S)NCc2ccccn2)c1` here?
A: Its Potency is inconclusive [inhibitor, partial curve, poor fit].

Q: For `COc1cc([N+](=O)[O-])cc(/C=N/NC(=O)c2cccnc2)c1O`, which Potency is on record?
A: Its Potency is “inactive”.

Q: Which Potency does the source give for `COc1ccccc1C(=O)Nc1ccc2ccccc2c1` here?
A: Its Potency is inconclusive [inhibitor, single point].

Q: Which Potency does the source give for `O=C(c1ccccc1)N1CCN(c2ccc(NCc3ccc4c(c3)OCO4)cc2)CC1` here?
A: Its Potency is inconclusive [inhibitor, partial curve, poor fit].

Q: Which Potency does the source give for `O=C(CSc1ccccc1)N1CCc2c([nH]c3ccccc23)C1c1ccc(F)cc1` (stereo not drawn) here?
A: The Potency was inconclusive [inhibitor, single point].

Q: `CC1CCN(S(=O)(=O)c2cn(CC(=O)Nc3cccc(C(F)(F)F)c3)c(=O)c3ccccc23)CC1` was tested. Which Potency did it give?
A: The Potency was inconclusive [inhibitor, full curve].

Q: For `c1ccc2oc(SCc3nc4ccccc4s3)nc2c1`, which Potency is on record?
A: Its Potency is inconclusive [inhibitor, partial curve, poor fit].

Q: Which Potency does the source give for `COc1ccc(C)cc1NC(=O)CN1CCN(c2ccccc2F)CC1` here?
A: Its Potency is inconclusive [inhibitor, partial curve, poor fit].

Q: For `CC(C)C[C@H](CO)Nc1nc(Nc2cccc(Cl)c2)c2ncn(C(C)C)c2n1`, which Potency is on record?
A: The Potency was inconclusive [inhibitor, single point].

Q: How did the Potency turn out when `Cc1nc2cc(C(=O)N3c4ccccc4CC3C)ccc2s1` (stereo not drawn) was run?
A: The Potency was inconclusive [inhibitor, partial curve, poor fit].

Q: With `Nc1c(-c2nc(-c3cccs3)no2)nnn1-c1ccc(Cl)cc1` as the molecule, how does the Potency read?
A: The Potency was “inactive”.

Q: How did the Potency turn out when `COc1ccc(NC(=O)C2CCCN(S(=O)(=O)c3ccccc3)C2)c(OC)c1` (stereo not drawn) was run?
A: The Potency was “inactive”.

Q: Which Potency does the source give for `COc1cccc(C(=O)Nc2cccc(C(=O)OCc3cc(=O)n4nc(C5CC5)sc4n3)c2)c1` here?
A: Its Potency is “inactive”.

Q: With `O=C(NC1CCCCC1)c1ccc(Cn2c(SCc3ccccc3F)nc3cccnc32)cc1` as the molecule, how does the Potency read?
A: Its Potency is inconclusive [inhibitor, single point].

Q: Which Potency does the source give for `COc1ccc(C(=O)Nc2ccc(S(=O)(=O)NC(C)(C)C)cc2)cc1[N+](=O)[O-]` here?
A: The Potency was inconclusive [inhibitor, single point].

Q: Which Potency does the source give for `CN(C)CCOC1c2ccccc2C=Cc2ccccc21` here?
A: The Potency was inconclusive [inhibitor, partial curve, poor fit].

Q: With `c1ccc2nc3c(nc2c1)[nH]c1ccccc13` as the molecule, how does the Potency read?
A: The Potency was “inactive”.

Q: How did the Potency turn out when `COc1ccc(-c2nn(-c3ccccc3)cc2C(=O)NC2CCCCC2C)cc1` (stereo not drawn) was run?
A: The Potency was inconclusive [inhibitor, full curve, poor fit].

Q: `COc1ccccc1N1CCN(Cc2ccsc2)CC1` was tested. Which Potency did it give?
A: The Potency was “inactive”.

Q: With `CCOC(=O)c1ccc(NC(=O)c2c(-c3c(F)cccc3Cl)noc2C)cc1` as the molecule, how does the Potency read?
A: Its Potency is inconclusive [inhibitor, single point].

Q: With `Cc1nc(NC(=O)c2ccccc2)sc1Cc1ccc2c(c1)OCO2` as the molecule, how does the Potency read?
A: Its Potency is inconclusive [inhibitor, single point].

Q: For `N#C[C@]1(S(=O)(=O)c2ccccc2)C[C@@H]2ON=C(c3cccc(Br)c3)[C@@H]2C1`, which Potency is on record?
A: Its Potency is inconclusive [inhibitor, partial curve, poor fit].

Q: With `CCN(CC)c1ccc(C2C(C(=O)Nc3ccccn3)=C(C)NC3=C2C(=O)CC(C)(C)C3)cc1` (stereo not drawn) as the molecule, how does the Potency read?
A: Its Potency is inconclusive [inhibitor, partial curve, poor fit].

Q: How did the activity change, negative = inhibition turn out when `Cc1cccc(NC(=S)N(CCCN(C)C)Cc2cc3cc4c(cc3[nH]c2=O)OCO4)c1` was run?
A: Its activity change, negative = inhibition is inactive: -27% [at 7.66 µM].

Q: How did the Potency turn out when `Cc1noc(/C=C/c2cccs2)c1S(=O)(=O)N1CCC(C(=O)Nc2ccc(F)c(Cl)c2)CC1` was run?
A: Its Potency is inconclusive [inhibitor, partial curve, poor fit].

Q: Which Potency does the source give for `CN(Cc1ccccc1)C(=O)c1ccccc1N(C)S(=O)(=O)c1ccccc1` here?
A: Its Potency is inconclusive [inhibitor, single point].

Q: Which Potency does the source give for `CCCCc1n[nH]c2c1/C(=N/O)CC(c1ccccc1)C2` (stereo not drawn) here?
A: The Potency was inconclusive [inhibitor, partial curve, poor fit].

Q: How did the Potency turn out when `CN(C)C(=S)Nc1ccc(Br)cc1Cl` was run?
A: The Potency was inconclusive [inhibitor, full curve, poor fit].
